Assay results from the RNAGym collection of RNA variant scans (doi:10.1101/gad.245936.114).
Variants at the background level are over-represented here.

B1: tRNA (parent)
chain: CUCUCGGUAGCCAAGUUGGUUUAAGGCGCAAGACUUUAAUUUAUCACUACGAAAUCUUGAGAUCGGGCGUUCGACUCGCCCCCGGGAGAUUUUUUCCUCGAGCAA

Variants of: B1
Assay: nonsense suppression (GFP-seq) (ratio to wild type); higher = more function; SUP4oc tRNA, yeast GFP reporter sort-seq
Summary of the method: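 Sorted GFP/RFP bins of yeast were each Illumina-sequenced with a phred ≥30 cutoff; the cells held a genome-integrated ochre-suppressor tRNA variant from a library with ~3% random mutations, a galactose-driven GFP ochre reporter, and RFP. Culture was in raffinose/galactose medium containing 80 mg/L adenine. Nonsense suppression, termed GFPSEQ, is the median GFP/RFP of the bins weighted by each variant's estimated cell share per bin, relative to the unmutated parent tRNA, for variants reaching ≥100 reads and ≥30 cells.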

Nonsense suppression, 0.0625:
G61A G69C

Nonsense suppression, 0.3:
G61C A87U

Nonsense suppression, 0.304:
G61A U63A

Nonsense suppression, 0.0366:
G61A C68G

Nonsense suppression, 0.0542:
A60G G78A

Nonsense suppression, 0.197:
G61A A87G

Nonsense suppression, 0.984:
A60U

Nonsense suppression, 0.728:
G61A U63C

Nonsense suppression, 0.0537:
A62U G78A

Nonsense suppression, 0.761:
A60U C79U

Nonsense suppression, 0.911:
G61U U76C

Nonsense suppression, 0.227:
G61A U63G

Nonsense suppression, 1.02:
A60U A87G

Nonsense suppression, 0.222:
A60U G73A

Nonsense suppression, 0.247:
G61C A87G

Nonsense suppression, 0.205:
A62G C75G

Nonsense suppression, 0.0362:
A60G U71C

Nonsense suppression, 0.248:
G61C C81G

Nonsense suppression, ≤ 0.026:
A60G G66U U71G
A60G G67C C77G C82G G84A
A60G G69U
A60G G86A
A60G U63G
A60G U70C
A60G U70C G73C C81U
A60U C64A
A60U C68A
A60U C72U
A60U C79G
A60U C79G A87U
A60U C79U C80A
A60U G65C
A60U G66C
A60U G66C G86A
A60U G66U
A60U G67U U71G
A60U G86C
A60U U63A G69U
A60U U70A C75A U76A
A60U U71A C75U C82A
A60U U71C
A60U U71C A74C A87G
A60U U71G G85U
A60U U76A A87G A89U
G61A A62G A74C
G61A A62U A87U
G61A A62U C72G
G61A C77A
G61A C83G A87G
G61A G65U
G61A G66A U70C
G61A G69A C81G
G61A G73C A74C G88A
G61A G88U
G61A U63A G66A
G61A U63A G88U
G61A U70C
G61A U71A
G61C A62U A74U G88A
G61C C68G U76A
G61C C80U A87G
G61C C82G
G61C G65A
G61C G65A C68U
G61C G65U C81A
G61C G67C C79U G85A
G61C G69A A87U
G61C G69C
G61C G69C C79G G84C
G61C G73A C83G
G61C G78A C79U
G61C G78C
G61C G84A
G61C G86U
G61C U63G C68G
G61U C64A C81A
G61U C68G U76C
G61U C68U C81G
G61U C77G
G61U C77U
G61U C79G
G61U C80G
G61U C83G
G61U G65A G86U
G61U G86U
G61U U63A U76C
G61U U71C C72G C80A
G61U U71G
G61U U76A
G61U U76C G85U
A62C A87U
A62C C64A
A62C C68G
A62C C72U
A62C C80A
A62C C82G
A62C G65U C72G
A62C G65U G66U A74G
A62C G67A
A62C G67A U76G C81U
A62C G67C
A62C G69A
A62C G69C G78A
A62C G69U
A62C G73A
A62C G86A
A62C U63C C68A U70A
A62C U63G
A62C U70C
A62C U70G
A62G A74U G86U
A62G C68U U71C
A62G C79G
A62G C80G
A62G C80U C81G
A62G G65C
A62G G67C
A62G G69A
A62G G73C U76C
A62G G73U
A62G G73U G86A
A62G U63G
A62G U63G G69U C83U
A62G U70C C81U
A62G U70C U71G
A62U A87U G88C
A62U A89G
A62U A89U
A62U C64A G84C
A62U C64U
A62U C64U C80G
A62U C68A C81A
A62U C68G G85A
A62U C68G U70C
A62U C75G G85U
A62U C79G
A62U C79U C83G
A62U C80G
A62U G69A
A62U G85C
A62U G88U
A62U U70A
A62U U71G
U63A A74G A87C
U63A C79G C80U
U63A C82A
U63A G66U U71A A87G
U63A G67U C83G
U63A G69A
U63A G84A
U63A G84C G85A
U63A G85C
U63A U70C
U63A U71A G84C
U63A U76A
U63A U76A C80G

Nonsense suppression, 0.23:
G61C U76C

Nonsense suppression, 0.0291:
G61C C72G

Nonsense suppression, 0.0361:
G61C A87C

Nonsense suppression, 0.633:
G61C C68U

Nonsense suppression, 0.0276:
G61A G69A

Nonsense suppression, 0.0268:
G61C G88A

Nonsense suppression, 1.19:
U63A C75G U76C

Nonsense suppression, 0.0573:
U63A G86U

Nonsense suppression, 0.0396:
G61A A89G

Nonsense suppression, 0.138:
A60G G85U

Nonsense suppression, 0.202:
G61C C79U
